From the supplement of paper PMC4967469

Experiments:
Assay in all cases: Viability of human cancer cell lines after 72 h of drug (GDSC screen)
CUDC-101 = compound: C#Cc1cccc(Nc2ncnc3cc(OC)c(OCCCCCCC(=O)NO)cc23)c1 [CUDC-101]; details: top dose 5.12 µM; top dose inferred
Protocol: (§1)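 Human cancer cell lines in 384-well plates, medium with 10% serum, drug for 72 h over a 256-fold dose range (nine 2-fold or five 4-fold steps up to the top dose). Adherent lines were fixed and stained with the nucleic acid dye Syto60, suspension lines read with resazurin; signal relative to control wells, capped at 0 and 100%. One two-parameter sigmoid per drug and line, fitted in a mixed model over all curves with the slope shared within a line.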

AC220 = compound: CC(C)(C)c1cc(NC(=O)Nc2ccc(-c3cn4c(n3)sc3cc(OCCN5CCOCC5)ccc34)cc2)no1 [AC220]; details: top dose 1.024 µM; top dose inferred
Protocol: as §1

RDEA119 = compound: COc1cc(F)c(F)c(Nc2ccc(I)cc2F)c1NS(=O)(=O)C1(C[C@H](O)CO)CC1 [RDEA119]; details: top dose 5 µM, top dose inferred
Protocol: as §1

JNK-9L = compound: Fc1cc(-c2ccnc(Nc3ccc(-n4cnc(N5CCOCC5)n4)cc3)n2)cc(N2CCOCC2)c1 [JNK-9L]; details: top dose 5.12 µM; top dose inferred
Protocol: as §1

OSU-03012 = compound: NCC(=O)Nc1ccc(-n2nc(C(F)(F)F)cc2-c2ccc3c(ccc4ccccc43)c2)cc1 [OSU-03012]; details: top dose 16 µM; top dose inferred
Protocol: as §1

5-Fluorouracil = compound: O=c1[nH]cc(F)c(=O)[nH]1 [5-Fluorouracil]; details: top dose 32 µM; top dose inferred
Protocol: as §1

QS11 = compound: OC[C@H](Cc1ccccc1)Nc1nc(Oc2ccc3c(c2)CCC3)nc2c1ncn2Cc1ccc(-c2ccccc2)cc1 [QS11]; details: top dose 10.24 µM
Protocol: as §1

Cell Line	AUC (CUDC-101)	IC50 (CUDC-101) [µM]	AUC (AC220)	IC50 (AC220) [µM]	AUC (RDEA119; screen: GDSC drug entry 1014)	IC50 (RDEA119; screen: GDSC drug entry 1014) [µM]	AUC (RDEA119; screen: GDSC drug entry 1526)	IC50 (RDEA119; screen: GDSC drug entry 1526) [µM]	AUC (JNK-9L)	IC50 (JNK-9L) [µM]	AUC (OSU-03012)	IC50 (OSU-03012) [µM]	AUC (5-Fluorouracil)	IC50 (5-Fluorouracil) [µM]	AUC (QS11)	IC50 (QS11) [µM]
MS751 (cervix, adherent)	0.697	1.09	0.99	> 1.02	0.969	> 5	0.939	> 5	0.572	0.494	0.774	5.81	0.972	> 32	0.966	> 10.2
VCaP (prostate, adherent)	0.288	0.0782	0.965	> 1.02	0.984	> 5	0.986	> 5	0.696	1.17	0.83	10.6	0.926	> 32	0.889	> 10.2
NB13 (neuroblastoma, adherent)	0.278	0.0818	0.99	> 1.02	0.977	> 5	0.982	> 5	0.641	0.745	0.691	3.19	0.639	4.62	0.873	7.92
JHH-4 (liver, adherent)	0.577	0.518	0.933	> 1.02	0.776	1.99	0.851	3.79	0.727	1.41	0.742	4.9	0.907	> 32	0.864	8.92
NCI-H2081 (small cell lung carcinoma, suspension)	0.842	3.92	0.955	> 1.02	0.988	> 5	0.979	> 5	0.752	1.78	0.808	8.84	0.908	> 32	0.948	> 10.2
KYSE-180 (oesophagus, adherent)	0.473	0.271	0.988	> 1.02			0.968	> 5	0.462	0.254	0.608	1.96	0.556	2.82	0.875	9.29
NCI-H1573 (lung adenocarcinoma, adherent)	0.821	2.85	0.973	> 1.02			0.956	> 5	0.833	3.17	0.879	15.5	0.969	> 32	0.986	> 10.2
NCI-H82 (small cell lung carcinoma, suspension)	0.766	1.8	0.985	> 1.02	0.987	> 5	0.981	> 5	0.843	3.36	0.933	> 16	0.71	7.54	0.985	> 10.2
H2869 (mesothelioma, adherent)	0.608	0.68	0.975	> 1.02	0.959	> 5	0.913	> 5	0.636	0.834	0.865	> 16	0.974	> 32	0.976	> 10.2
NCI-H2228 (lung adenocarcinoma, adherent)	0.845	> 5.12	0.925	> 1.02			0.838	> 5	0.564		0.783	10.8	0.906	> 32	0.914	> 10.2
WIL2-NS (lymphoid neoplasm, suspension)	0.081	< 0.02	0.966	> 1.02	0.991	> 5			0.55	0.426	0.488	0.932	0.419	1.25	0.798	3.87
HOP-62 (lung adenocarcinoma, adherent)	0.532	0.392	0.985	> 1.02	0.699	1.13	0.757	1.72	0.471	0.267	0.527	1.18	0.681	6.38	0.727	2.82
EW-16 (Ewing sarcoma, adherent)	0.319	0.0974	0.977	> 1.02	0.881	> 5	0.937	> 5	0.546	0.43	0.51	1.06	0.908	> 32	0.833	7.04
TE-15 (oesophagus, suspension)	0.304	0.0835	0.974	> 1.02	0.372	0.132	0.918	> 5	0.562	0.484	0.627	2.36	0.748	11.5	0.92	> 10.2
CCF-STTG1 (glioma, adherent)	0.987	> 5.12	0.963	> 1.02	0.908	> 5	0.864	4.4	0.657	0.877	0.775	6.39	0.987	> 32	0.943	> 10.2
NCI-H1993 (lung adenocarcinoma, adherent)	0.652	0.973	0.85	> 1.02	0.983	> 5	0.82	4.13	0.693	1.33	0.982	> 16	0.962	> 32	0.982	> 10.2
COR-L279 (small cell lung carcinoma, suspension)	0.379	0.155	0.923	> 1.02	0.989	> 5	0.985	> 5	0.724	1.27	0.914	> 16	0.936	> 32	0.896	> 10.2

IC50 is the fitted dose that halves viability relative to control wells, and lower means more sensitive; fits outside the tested doses are given as limits. AUC is the area under the same curve over the 256-fold range up to the top dose, as a fraction; it is 1 without any effect and falls as sensitivity rises. For some assays here: An inferred top dose was calculated from the reported fits. For some assays here: Where an entry number is given, a second screen of the drug exists; the two often differ.
